Nine molecules from PMC4277425 can be followed below.

The chains behind the UniProt entries cited, without tags or fusion partners.
UniProt Q96QD5: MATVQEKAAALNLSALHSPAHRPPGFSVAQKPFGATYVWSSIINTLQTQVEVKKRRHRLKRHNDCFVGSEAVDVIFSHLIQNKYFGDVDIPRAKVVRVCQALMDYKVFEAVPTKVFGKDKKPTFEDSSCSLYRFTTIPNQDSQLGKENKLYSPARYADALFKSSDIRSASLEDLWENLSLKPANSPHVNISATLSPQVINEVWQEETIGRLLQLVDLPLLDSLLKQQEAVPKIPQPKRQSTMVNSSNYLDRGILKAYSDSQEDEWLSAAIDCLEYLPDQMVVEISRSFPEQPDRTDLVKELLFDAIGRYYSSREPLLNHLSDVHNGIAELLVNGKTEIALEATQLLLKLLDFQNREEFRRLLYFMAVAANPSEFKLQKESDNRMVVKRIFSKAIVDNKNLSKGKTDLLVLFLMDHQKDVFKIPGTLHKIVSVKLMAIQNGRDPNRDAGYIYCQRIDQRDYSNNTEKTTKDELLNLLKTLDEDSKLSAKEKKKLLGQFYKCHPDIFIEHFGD

These are yes or no findings as the source states them, for the method shown. For some of these results: In cells and extracts the contact can be indirect. Some results given as binding are weak or reduced against the parent protein; the word gives no strength. For some of these results: Tags and fused reporters may be left off the sequences shown.

Assay [1] has as its target FLAG-tagged DEPDC7 (human) (UniProt Q96QD5). Nature of the assay: co-IP; HEK-293 cotransfected with FLAG-DEPDC7 and HA-tagged constructs; lysates (150 mM NaCl, 20 mM Hepes pH 7.4, 1% Triton X-100, 10% glycerol) immunoprecipitated with anti-FLAG mAb, blot with anti-HA.
In assay [2] the target is CARMA2short fused to the DNA-binding domain of GAL4 (UniProt Q9BXL6). Nature of the assay: two-hybrid; direct test in yeast AH109: DEPDC7 fused to GAL4-TAD with the indicated cDNAs fused to GAL4-DBD; growth on selective media, five to ten independent transformants.
Assay [3] has the same target. Nature of the assay: two-hybrid; library screen, Matchmaker system, yeast AH109; GAL4DBD-CARMA2sh as bait against a human cDNA library in pACT2 (GAL4TAD); 2x10^6 clones; selective growth, beta-galactosidase reporter.
Assay [4] concerns the target endogenous DEPDC7 (human (endogenous in HEK-293)) (UniProt Q96QD5). Nature of the assay: co-IP; HEK-293 transfected with FLAG-tagged constructs; lysates immunoprecipitated with anti-DEPDC7 antiserum (endogenous DEPDC7), immunoblot. A general note: In western blotting, separated proteins are transferred to a membrane and probed.
The next assay deals with T1, CARMA3 (UniProt Q9BWT7).
T1 sequence: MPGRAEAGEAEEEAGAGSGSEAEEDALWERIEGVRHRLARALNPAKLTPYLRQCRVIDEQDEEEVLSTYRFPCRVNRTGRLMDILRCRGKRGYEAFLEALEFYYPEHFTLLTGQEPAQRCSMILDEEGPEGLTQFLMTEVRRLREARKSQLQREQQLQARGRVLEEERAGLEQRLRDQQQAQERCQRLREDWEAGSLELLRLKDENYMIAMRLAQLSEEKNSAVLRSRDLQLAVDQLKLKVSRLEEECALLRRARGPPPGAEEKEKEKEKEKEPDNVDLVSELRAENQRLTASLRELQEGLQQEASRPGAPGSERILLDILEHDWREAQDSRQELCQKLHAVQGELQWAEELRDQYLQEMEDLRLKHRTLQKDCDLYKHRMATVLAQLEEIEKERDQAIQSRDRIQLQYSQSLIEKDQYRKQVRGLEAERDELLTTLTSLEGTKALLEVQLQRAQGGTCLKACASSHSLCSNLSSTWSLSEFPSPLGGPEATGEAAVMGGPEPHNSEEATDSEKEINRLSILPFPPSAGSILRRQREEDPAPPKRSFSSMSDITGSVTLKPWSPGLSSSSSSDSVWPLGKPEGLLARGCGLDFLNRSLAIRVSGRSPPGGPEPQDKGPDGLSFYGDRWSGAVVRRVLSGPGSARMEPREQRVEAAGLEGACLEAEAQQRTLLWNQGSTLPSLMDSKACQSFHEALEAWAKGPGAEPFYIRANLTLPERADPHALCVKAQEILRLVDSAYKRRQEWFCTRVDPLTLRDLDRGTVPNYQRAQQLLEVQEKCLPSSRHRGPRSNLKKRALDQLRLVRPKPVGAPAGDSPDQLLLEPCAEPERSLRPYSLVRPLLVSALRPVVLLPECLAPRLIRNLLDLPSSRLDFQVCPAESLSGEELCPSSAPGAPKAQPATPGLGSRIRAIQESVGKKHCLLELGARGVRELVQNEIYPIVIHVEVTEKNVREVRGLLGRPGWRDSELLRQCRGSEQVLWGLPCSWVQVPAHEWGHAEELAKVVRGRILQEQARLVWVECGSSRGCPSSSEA
In words: co-IP; HEK-293 transfected with FLAG-tagged constructs; lysates immunoprecipitated with anti-CARMA3 antiserum, immunoblot.

The target in assay [5] is endogenous DEPDC7 (human (endogenous in HEK-293)) (UniProt Q96QD5). Nature of the assay: co-IP; endogenous proteins, HEK-293 lysates immunoprecipitated with the indicated antibodies, immunoblot; anti-myc antisera as control IgG.

“HA-tagged CARMA2sh (from UniProt Q9BXL6-2 1-740)”: the binding entry in assay [1] is “binds”.

Consider “DEPDC7 fused to the GAL4 transcription activation domain (from UniProt Q96QD5 1-511)”, for which the binding entry in assay [2] and in assay [3] was “binds” in each case.

Turning to “HA-tagged CARMA2cardless (from UniProt Q9BXL6-3 1-434)”, the binding entry in assay [1] was “binds”.

Consider “FLAG-tagged CARMA2sh (from UniProt Q9BXL6-2 1-740)”, for which the binding result in assay [4] was “binds”.

Regarding “endogenous DEPDC7 (from UniProt Q96QD5 1-511)”, the binding entry with CARMA3 was “binds”.

With “HA-tagged CARMA2 CARD domain (1-123) (from UniProt Q9BXL6 1-123) (domain or fragment)”, in assay [1], the binding entry is reported as “no binding”.

For the molecule “HA-tagged CARMA2 PDZ domain (550-690) (from UniProt Q9BXL6 550-690) (domain or fragment)”, the binding entry in assay [1] was “no binding”.

B1: HA-tagged CARMA2 region 123-550 (coiled coil and linker region) (domain or fragment, UniProt Q9BXL6 123-550)
chain: KLTECLAGAIGSLQEELNQEKGQKEVLLRRCQQLQEHLGLAETRAEGLHQLEADHSRMKREVSAHFHEVLRLKDEMLSLSLHYSNALQEKELAASRCRSLQEELYLLKQELQRANMVSSCELELQEQSLRTASDQESGDEELNRLKEENEKLRSLTFSLAEKDILEQSLDEARGSRQELVERIHSLRERAVAAERQREQYWEEKEQTLLQFQKSKMACQLYREKVNALQAQVCELQKERDQAYSARDSAQREISQSLVEKDSLRRQVFELTDQVCELRTQLRQLQAEPPGVLKQEARTREPCPREKQRLVRMHAICPRDDSDCSLVSSTESQLLSDLSATSSRELVDSFRSSSPAPPSQQSLYKRVAEDFGEEPWSFSSCLEIPEGDPGALPGAKAGDPHLDYELLDTADLPQLESSLQPVSPGRLDV
In the case of B1, in assay [1], the binding entry was “binds”.

B2: endogenous Net1 (protein, UniProt Q7Z628 1-596)
chain: MEPELAAQKQPRPRRRSRRASGLSTEGATGPSADTSGSELDGRCSLRRGSSFTFLTPGPNWDFTLKRKRREKDDDVVSLSSLDLKEPSNKRVRPLARVTSLANLISPVRNGAVRRFGQTIQSFTLRGDHRSPASAQKFSSRSTVPTPAKRRSSALWSEMLDITMKESLTTREIRRQEAIYEMSRGEQDLIEDLKLARKAYHDPMLKLSIMSEEELTHIFGDLDSYIPLHEDLLTRIGEATKPDGTVEQIGHILVSWLPRLNAYRGYCSNQLAAKALLDQKKQDPRVQDFLQRCLESPFSRKLDLWSFLDIPRSRLVKYPLLLKEILKHTPKEHPDVQLLEDAILIIQGVLSDINLKKGESECQYYIDKLEYLDEKQRDPRIEASKVLLCHGELRSKSGHKLYIFLFQDILVLTRPVTRNERHSYQVYRQPIPVQELVLEDLQDGDVRMGGSFRGAFSNSEKAKNIFRIRFHDPSPAQSHTLQANDVFHKQQWFNCIRAAIAPFQSAGSPPELQGLPELHEECEGNHPSARKLTAQRRASTVSSVTQVEVDENAYRCGSGMQMAEDSKSLKTHQTQPGIRRARDKALSGGKRKETLV
On to B2, for which the binding entry in assay [5] is reported as “binds”.
